In PMC6212790:
This is one part of the list. At the low end of the ranking, values are background and their order means little.

Molecular target: T1, GST-Rok (full length) (UniProt O34857)
T1 sequence: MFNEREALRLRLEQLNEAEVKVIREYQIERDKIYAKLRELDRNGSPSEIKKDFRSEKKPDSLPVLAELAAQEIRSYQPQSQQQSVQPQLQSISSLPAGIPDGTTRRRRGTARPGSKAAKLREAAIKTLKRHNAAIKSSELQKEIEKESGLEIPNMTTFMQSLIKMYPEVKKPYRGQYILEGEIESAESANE
Test: protein binding microarray;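 further: rank score from −0.5 (least bound) to 0.5 (best bound)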
Settings: Rok is a gene silencer of Bacillus subtilis; high values mean tight binding; most listed sequences are background and not binding sites; double strand, one strand shown

| Sequence | binding signal [E-score] |
| --- | --- |
| CCTATCCC | -0.299 |
| TAGCCATA | 0.145 |
| AAGAAAAC | -0.217 |
| ATAGTTGC | 0.306 |
| AGTACGCC | -0.149 |
| CTACGCTA | 0.27 |
| GTACGGCA | -0.048 |
| CTTGATAC | 0.0975 |
| AACTACAT | 0.419 |
| CGTTAACA | -0.0142 |
| AGGTGGGC | -0.369 |
| GCGGTAGC | 0.0476 |
| ATCAGATA | 0.0946 |
| CCGGAAAG | -0.182 |
| ACGTTCAA | -0.0397 |
| AATCATCG | 0.01 |
| CCGAGAGG | -0.343 |
| CTCAGCGC | 0.0572 |
| CTTCGATC | -0.0236 |
| ATATGGAA | 0.231 |
| ATTTGCCG | -0.0552 |
| CAGCACAA | 0.0381 |
| AATGCAAT | 0.133 |
| AGACTCTC | -0.122 |
| GTTAGCAA | 0.209 |

| Sequence | binding signal [E-score] |
| --- | --- |
| ACGCTTGC | -0.1 |
| AGGCATTA | 0.169 |
| CATGCGAA | 0.0273 |
| CAAATAGA | 0.108 |
| ACGATCAC | -0.178 |
| CCGAGCGA | -0.357 |
| GGTATACC | 0.102 |
| GCTGAGTA | -0.0132 |
| CTGGACCC | -0.459 |
| GACTGTGA | -0.112 |
| AGAATCCA | -0.0315 |
| ATATATTG | 0.372 |
| CTATACGC | 0.0736 |
| GGATGGAC | -0.287 |
| CAGGATGC | -0.0958 |
| CCATAAGG | -0.156 |
| CGCAGGAC | -0.311 |
| CCTAATTC | 0.0288 |
| AGATATGA | 0.175 |
| AGAAGCTA | 0.0762 |
| ATGCCTGG | -0.103 |
| AGAACGAC | 0.113 |
| CCGTGGGA | -0.235 |
| CATGCTGC | -0.00844 |
| AAGAATCC | 0.0482 |

| Sequence | binding signal [E-score] |
| --- | --- |
| GGGGTATA | -0.0577 |
| GGCGTTAC | -0.208 |
| GTTGTGCA | 0.227 |
| AGCGCATC | 0.00598 |
| ACACCTCC | -0.164 |
| AGCCTCGG | -0.32 |
| ACTTATTG | 0.0643 |
| TGGTAAAA | 0.354 |
| AAGCGAGG | -0.282 |
| CATCCAAG | 0.11 |
| ATGAAACC | -0.201 |
| GACATCCA | -0.1 |
| ACCACAAT | 0.058 |
| CGAAAAAC | -0.193 |
| AAGCTAAT | 0.235 |
| CATTCTGG | -0.171 |
| ATCGGCGA | 0.109 |
| TAGGACAA | -0.0259 |
| GAATCTTA | 0.141 |
| ATACGCTA | 0.214 |
| ACGACAGT | 0.0319 |
| AGTCCGGC | -0.234 |
| AATGTCTC | 0.00163 |
| GGTACAGA | 0.0996 |
| AAGGATTC | -0.0144 |

| Sequence | binding signal [E-score] |
| --- | --- |
| AATAGAGT | -0.026 |
| CTGGACTC | -0.256 |
| ATCCACAC | 0.00217 |
| ATAGAACA | 0.236 |
| CATTCATA | 0.212 |
| AACCTCGG | -0.0369 |
| TCTACAGA | 0.21 |
| CATTATGC | 0.143 |
| ATGAGACG | -0.208 |
| CTCGCGGA | -0.123 |
| AGCCTATG | -0.124 |
| GTCAGGAC | -0.305 |
| ACACCCAT | -0.11 |
| CAAGTGCA | -0.115 |
| AAAACAGG | 0.172 |
| ACCCCTAT | -0.221 |
| ACATTCTC | 0.0677 |
| TAGCGGGA | -0.124 |
| ACGACAAG | 0.00569 |
| CTCCGCAG | -0.305 |
| AGGCTAGA | -0.0793 |
| AGGCGACG | -0.0914 |
| AGCGTCTC | -0.128 |
| TGGGCACA | 0.0658 |
| CCCCAGTA | -0.194 |

| Sequence | binding signal [E-score] |
| --- | --- |
| CGTCTGCA | -0.0854 |
| AGGACCGC | -0.388 |
| CGTTCTAG | 0.121 |
| ATGTCAAA | 0.108 |
| GCGTGGCA | -0.281 |
| ATGCCCGG | -0.304 |
| ATAGGAAG | 0.0173 |
| CTGGGGCA | -0.328 |
| AACCAGGA | -0.134 |
| CGTGGTAG | 0.295 |
| GTGTATGA | 0.155 |
| TTGGGAAA | -0.011 |
| CAATTACC | 0.133 |
| TATAAGGA | 0.062 |
| CCAGTTAC | 0.173 |
| AGGTGATA | 0.315 |
| AAGACTCA | -0.0739 |
| GCCGACAA | -0.192 |
| ACCAGAAC | 0.0361 |
| CGATCATA | 0.207 |
| ACTCTTCG | 0.0618 |
| GAGGAGGC | -0.352 |
| CGGCTCTC | -0.283 |
| ATCCCAAT | -0.155 |
| ACACTGCT | 0.13 |

| Sequence | binding signal [E-score] |
| --- | --- |
| ACTAGGCC | -0.213 |
| ATCGAGGC | -0.281 |
| CGTACATC | 0.239 |
| TACCGCAA | 0.185 |
| ACACACAC | 0.127 |
| GCTGGGCC | -0.216 |
| GCGGGGCC | -0.412 |
| GGGCAACC | -0.342 |
| CTGACAAG | -0.117 |
| AAAAGACT | -0.0617 |
| CAGGCCCC | -0.398 |
| ACAGCGCC | -0.324 |
| AGTTGTGA | -0.0272 |
| AGCATTGA | 0.0332 |
| ACGAGAAA | -0.0804 |
| CAGCCACG | -0.111 |
| GCTGCAAA | -0.0275 |
| AAATGATG | 0.146 |
| ATAATTAC | 0.385 |
| CAGCATCA | 0.0323 |
| CAACTCCC | -0.125 |
| CGCCTACG | -0.21 |
| CTGTGTTC | -0.0402 |
| AATCCTCT | -0.0111 |
| ACTGCAGA | 0.0691 |

| Sequence | binding signal [E-score] |
| --- | --- |
| ACCAAATC | 0.131 |
| AAATACAG | 0.264 |
| AGTGGCCA | -0.0827 |
| CCAGTAAC | -0.103 |
| CGGACTTC | -0.0622 |
| ATAAGGAA | 0.0169 |
| CTCCACTA | 0.0959 |
| ATGTACAC | 0.191 |
| AGGCTTCA | -0.335 |
| AGGGCCGC | -0.341 |
| CTGAGAAA | -0.00517 |
| GGAGCCTA | -0.287 |
| AAAATCTT | -0.00511 |
| GTTTTTTA | 0.0779 |
| CGGTAGTC | 0.173 |
| CTGGTTCA | -0.105 |
| ATCACGAG | -0.0282 |
| ACGATTCG | -0.0262 |
| ATCAAGAA | -0.086 |
| ACGGCAGA | -0.141 |
| CTCGGTAC | 0.171 |
| CCAAAAGC | -0.17 |
| TACACGAA | 0.196 |
| AAAGCAAC | 0.0568 |
| CCACAATA | 0.276 |

| Sequence | binding signal [E-score] |
| --- | --- |
| GTGACAAA | -0.109 |
| GAAGAACA | -0.0616 |
| AGAAGCAA | 0.19 |
| AGAACCCC | -0.314 |
| AGGCTTAT | -0.00888 |
| CTCCTATC | 0.000123 |
| GAGAGAGA | -0.124 |
| AATCGATA | 0.281 |
| ACTTTACC | 0.196 |
| AGTCGGAT | -0.187 |
| CGTTGTTA | 0.122 |
| CGCTCGAG | -0.144 |
| GCAGGACC | -0.352 |
| ACCGACTA | -0.00372 |
| GAAATCTC | 0.209 |
| CCCGTACA | 0.00638 |
| GAGGGAAA | -0.19 |
| CGGCTGTA | -0.0178 |
| ATGCCTTG | -0.0353 |
| GCCAGCTA | 0.0881 |
| GAGCTCAA | -0.118 |
| ACCACACT | 0.0549 |
| AGGATTCA | -0.117 |
| GGTACGCA | -0.0737 |
| GGGCCGGA | -0.296 |

| Sequence | binding signal [E-score] |
| --- | --- |
| AGCTCATA | 0.0657 |
| AAGACGAT | -0.216 |
| GAAATGCA | -0.095 |
| CCATTTGC | -0.039 |
| AGATGGTC | 0.0272 |
| AGTCATCG | -0.11 |
| CCGCACTC | -0.348 |
| GCGCTGCA | -0.112 |
| GGAATCTA | 0.363 |
| GAGTGTGC | -0.131 |
| AGTTCAAC | 0.145 |
| GAAGGTGA | -0.267 |
| ACGCCGTG | -0.165 |
| GTTTACCA | 0.0835 |
| AGGATAAG | 0.0375 |
| AAATTTCA | 0.146 |
| GGCGTCAA | -0.239 |
| AAGTGAGC | -0.093 |
| AGCAGGTA | 0.00164 |
